Reference: the supplement of paper PMC8728848
The other results are listed elsewhere or left out.

Columns and labels:
Experiment in all cases: glycan array binding signal (z-score within array); higher = stronger binding
Settings in all cases: glycan notation: IUPAC condensed, linker removed
[1] = target: Gal(b1-3)GlcNAc(b1-3)Gal(b1-4)GlcNAc(b1-2)[Gal(b1-3)GlcNAc(b1-3)Gal(b1-4)GlcNAc(b1-6)]Man(a1-6)[Gal(b1-3)GlcNAc(b1-3)Gal(b1-4)GlcNAc(b1-2)Man(a1-3)]Man(b1-4)GlcNAc(b1-4)[Fuc(a1-6)]GlcNAc
Method in brief: (§1)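 The Consortium for Functional Glycomics database supplied 3228 glycan arrays, of which those lacking an available protein sequence were dropped. The binding signal, a within-array Z-score, was averaged across arrays of the same protein sequence and across linkers. Negative scores can be read as non-binding.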

[2] = target: Gal(b1-3)GlcNAc(b1-3)Gal(b1-4)GlcNAc(b1-3)Gal(b1-4)GlcNAc(b1-2)[Gal(b1-3)GlcNAc(b1-3)Gal(b1-4)GlcNAc(b1-3)Gal(b1-4)GlcNAc(b1-6)]Man(a1-6)[Gal(b1-3)GlcNAc(b1-3)Gal(b1-4)GlcNAc(b1-3)Gal(b1-4)GlcNAc(b1-2)Man(a1-3)]Man(b1-4)GlcNAc(b1-4)[Fuc(a1-6)]GlcNAc
Method in brief: as §1

[3] = target: Gal(b1-3)GlcNAc(b1-3)Gal(b1-4)GlcNAc(b1-6)[Gal(b1-3)GlcNAc(b1-3)]Gal(b1-4)Glc
Method in brief: as §1

[4] = target: Gal(b1-3)GlcNAc(b1-3)Gal(b1-4)[Fuc(a1-3)]GlcNAc
Method in brief: as §1

[5] = target: Gal(b1-3)GlcNAc(b1-3)Gal(b1-4)[Fuc(a1-3)]GlcNAc(b1-6)[Gal(b1-3)GlcNAc(b1-3)]Gal(b1-4)Glc
Method in brief: as §1

[6] = target: Gal(b1-3)GlcNAc(b1-3)GalNAc
Method in brief: as §1

[7] = target: Gal(b1-3)GlcNAc(b1-6)Gal(b1-4)GlcNAc
Method in brief: as §1

[8] = target: Gal(b1-3)GlcNAc(b1-6)GalNAc
Method in brief: as §1

[9] = target: Gal(b1-3)GlcNAc(b1-6)[Gal(b1-3)]GalNAc
Method in brief: as §1

Gal(b1-3)GlcNAc6S = target: Gal(b1-3)GlcNAc6S
Method in brief: as §1

[10] = target: Gal(b1-3)[Fuc(a1-4)]GlcNAc
Method in brief: as §1

[11] = target: Gal(b1-3)[Fuc(a1-4)]GlcNAc(b1-2)Man
Method in brief: as §1

[12] = target: Gal(b1-3)[Fuc(a1-4)]GlcNAc(b1-2)Man(a1-3)[Gal(b1-3)[Fuc(a1-4)]GlcNAc(b1-2)Man(a1-6)]Man(b1-4)GlcNAc(b1-4)[Fuc(a1-6)]GlcNAc
Method in brief: as §1

[13] = target: Gal(b1-3)[Fuc(a1-4)]GlcNAc(b1-3)Gal(b1-3)[Fuc(a1-4)]GlcNAc
Method in brief: as §1

[14] = target: Gal(b1-3)[Fuc(a1-4)]GlcNAc(b1-3)Gal(b1-4)[Fuc(a1-3)]GlcNAc
Method in brief: as §1

[15] = target: Gal(b1-3)[Fuc(a1-4)]GlcNAc(b1-6)GalNAc
Method in brief: as §1

[16] = target: Gal(b1-3)[GlcNAc(b1-6)]GalNAc
Method in brief: as §1

[17] = target: Gal(b1-3)[Neu5Ac(a2-6)]GalNAc
Method in brief: as §1

[18] = target: Gal(b1-3)[Neu5Ac(a2-6)]GlcNAc(b1-4)Gal(b1-4)Glc
Method in brief: as §1

[19] = target: Gal(b1-3)[Neu5Ac(b2-6)]GalNAc
Method in brief: as §1

Gal(b1-4)Gal = target: Gal(b1-4)Gal
Method in brief: as §1

[20] = target: Gal(b1-4)GalNAc(a1-3)[Fuc(a1-2)]Gal(b1-4)GlcNAc
Method in brief: as §1

[21] = target: Gal(b1-4)GalNAc(b1-3)[Fuc(a1-2)]Gal(b1-4)GlcNAc
Method in brief: as §1

Gal(b1-4)Glc = target: Gal(b1-4)Glc
Method in brief: as §1

Gal(b1-4)Glc6S = target: Gal(b1-4)Glc6S
Method in brief: as §1

Gal(b1-4)GlcNAc = target: Gal(b1-4)GlcNAc
Method in brief: as §1

[22] = target: Gal(b1-4)GlcNAc(a1-6)Gal(b1-4)GlcNAc
Method in brief: as §1

Gal(b1-4)GlcNAc(b1-2)Man = target: Gal(b1-4)GlcNAc(b1-2)Man
Method in brief: as §1

[23] = target: Gal(b1-4)GlcNAc(b1-2)Man(a1-3)Man(b1-4)GlcNAc(b1-4)GlcNAc
Method in brief: as §1

[24] = target: Gal(b1-4)GlcNAc(b1-2)Man(a1-3)[Gal(b1-4)GlcNAc(b1-2)Man(a1-6)]Man(b1-4)GlcNAc(b1-4)GlcNAc
Method in brief: as §1

[25] = target: Gal(b1-4)GlcNAc(b1-2)Man(a1-3)[Gal(b1-4)GlcNAc(b1-2)Man(a1-6)]Man(b1-4)GlcNAc(b1-4)[Fuc(a1-6)]GlcNAc
Method in brief: as §1

[26] = target: Gal(b1-4)GlcNAc(b1-2)Man(a1-3)[Gal(b1-4)GlcNAc(b1-2)Man(a1-6)][Gal(b1-4)GlcNAc(b1-4)]Man(b1-4)GlcNAc(b1-4)[Fuc(a1-6)]GlcNAc
Method in brief: as §1

[27] = target: Gal(b1-4)GlcNAc(b1-2)Man(a1-3)[Gal(b1-4)GlcNAc(b1-2)Man(a1-6)][GlcNAc(b1-4)]Man(b1-4)GlcNAc(b1-4)[Fuc(a1-6)]GlcNAc
Method in brief: as §1

[28] = target: Gal(b1-4)GlcNAc(b1-2)Man(a1-3)[GlcNAc(b1-2)Man(a1-6)]Man(b1-4)GlcNAc(b1-4)GlcNAc
Method in brief: as §1

[29] = target: Gal(b1-4)GlcNAc(b1-2)Man(a1-3)[GlcNAc(b1-4)][Gal(b1-4)GlcNAc(b1-2)Man(a1-6)]Man(b1-4)GlcNAc(b1-4)GlcNAc
Method in brief: as §1

[30] = target: Gal(b1-4)GlcNAc(b1-2)Man(a1-3)[Man(a1-6)]Man(b1-4)GlcNAc(b1-4)GlcNAc
Method in brief: as §1

[31] = target: Gal(b1-4)GlcNAc(b1-2)Man(a1-6)Man(b1-4)GlcNAc(b1-4)GlcNAc
Method in brief: as §1

[32] = target: Gal(b1-4)GlcNAc(b1-2)Man(a1-6)[GlcNAc(b1-2)Man(a1-3)]Man(b1-4)GlcNAc(b1-4)GlcNAc
Method in brief: as §1

B1: PX14343A-bvu-539-29-539 (Bacteroides vulgatus) (protein)
chain: DSLTESSSNTFWQTPDDALMALASCYDALQSNQLYNSDQYSLGPLYMDCISDNGGHFNWSGWMEGYDMAMGIHTPSSSIIGSYWKDCYEVISRCNVLIANIDRVDMDASQKAIYQAEAKTIRALMYINLTMTYQDVPFLTAPLTIDEAECEKTDRAAIVAHVMTDLQDAAEVLPQNASSRGHITKGAALSLLGRVALYNEKWDDAIAAYKQVQGLGYSLDPSYAKLFTQSGETSPEIIFAVRYEGPGMSEGAAFNAHWNTPLEAMNGTIDLADAYYCKDGKPTTDTKIAELNGGGGLDVSKPNPAHFENRDPRLYSTLFVPGMLWNGKGGIDTSASNPYANVYGGAAASLSTVYVYKYFDPTDTSNSWDNGQDFYVVRYAEVLLSLAEAMVQKGGYVYSDVTALVNEVRQRADVNMPTVEEVEGTSLSKDELLEVIKHERRVELAFEGLRLFDLYRWKELDKAVANIENERTMYGLAYEARKFNGERDYVWPLPTAELDTNKKLVQHDLWK
[1]
  glycan array binding signal (z-score): 0.349
[2]
  glycan array binding signal (z-score): 4.27
[3]
  glycan array binding signal (z-score): -0.114
[4]
  glycan array binding signal (z-score): -0.15
[5]
  glycan array binding signal (z-score): -0.196
[6]
  glycan array binding signal (z-score): -0.353
[7]
  glycan array binding signal (z-score): 0.879
[8]
  glycan array binding signal (z-score): -0.191
[9]
  glycan array binding signal (z-score): -0.055
Gal(b1-3)GlcNAc6S
  glycan array binding signal (z-score): -0.249
[10]
  glycan array binding signal (z-score): -0.05
[11]
  glycan array binding signal (z-score): -0.14
[12]
  glycan array binding signal (z-score): -0.231
[13]
  glycan array binding signal (z-score): -0.355
[14]
  glycan array binding signal (z-score): -0.271
[15]
  glycan array binding signal (z-score): 0.091
[16]
  glycan array binding signal (z-score): -0.232
[17]
  glycan array binding signal (z-score): -0.213
[18]
  glycan array binding signal (z-score): -0.417
[19]
  glycan array binding signal (z-score): -0.305
Gal(b1-4)Gal
  glycan array binding signal (z-score): 0.117
[20]
  glycan array binding signal (z-score): -0.379
[21]
  glycan array binding signal (z-score): -0.325
Gal(b1-4)Glc
  glycan array binding signal (z-score): 0.233
Gal(b1-4)Glc6S
  glycan array binding signal (z-score): -0.058
Gal(b1-4)GlcNAc
  glycan array binding signal (z-score): -0.25
[22]
  glycan array binding signal (z-score): 0.104
Gal(b1-4)GlcNAc(b1-2)Man
  glycan array binding signal (z-score): -0.281
[23]
  glycan array binding signal (z-score): 8.02
[24]
  glycan array binding signal (z-score): 0.081
[25]
  glycan array binding signal (z-score): 1.39
[26]
  glycan array binding signal (z-score): 0.204
[27]
  glycan array binding signal (z-score): -0.362
[28]
  glycan array binding signal (z-score): -0.16
[29]
  glycan array binding signal (z-score): -0.124
[30]
  glycan array binding signal (z-score): -0.02
[31]
  glycan array binding signal (z-score): -0.225
[32]
  glycan array binding signal (z-score): -0.116
